What all share (experiment): glycan array binding signal (z-score within array); higher = stronger binding
What all share (conditions): glycan notation: IUPAC condensed, linker removed

Assay [1] deals with Gal(b1-4)GalNAc(b1-3)[Fuc(a1-2)]Gal(b1-4)GlcNAc. The method in brief:
(§1)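 Arrays were curated from the Consortium for Functional Glycomics database, 3228 in total, and kept only where the protein sequence was available. Binding is expressed as a within-array Z-score. This score was averaged across arrays of the same protein sequence at different concentrations or buffers and across linkers, and negative values can be read as non-binding.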

In another assay the target is Gal(b1-4)Glc. The method in brief: as §1
Another assay deals with Gal(b1-4)Glc6S. The method in brief:
as §1

In the next assay the target is Gal(b1-4)GlcNAc. The method in brief: as §1
In assay [2] the target is Gal(b1-4)GlcNAc(a1-6)Gal(b1-4)GlcNAc. The method in brief: as §1
Another assay addresses Gal(b1-4)GlcNAc(b1-2)Man. The method in brief:
as §1

The target in assay [3] is Gal(b1-4)GlcNAc(b1-2)Man(a1-3)Man(b1-4)GlcNAc(b1-4)GlcNAc. The method in brief:
as §1

The target of assay [4] is Gal(b1-4)GlcNAc(b1-2)Man(a1-3)[Gal(b1-4)GlcNAc(b1-2)Man(a1-6)]Man(b1-4)GlcNAc(b1-4)GlcNAc. The method in brief: as §1
The target in assay [5] is Gal(b1-4)GlcNAc(b1-2)Man(a1-3)[Gal(b1-4)GlcNAc(b1-2)Man(a1-6)]Man(b1-4)GlcNAc(b1-4)[Fuc(a1-6)]GlcNAc. The method in brief:
as §1

Assay [6] deals with Gal(b1-4)GlcNAc(b1-2)Man(a1-3)[Gal(b1-4)GlcNAc(b1-2)Man(a1-6)][Gal(b1-4)GlcNAc(b1-4)]Man(b1-4)GlcNAc(b1-4)[Fuc(a1-6)]GlcNAc. The method in brief:
as §1

Assay [7] concerns the target Gal(b1-4)GlcNAc(b1-2)Man(a1-3)[Gal(b1-4)GlcNAc(b1-2)Man(a1-6)][GlcNAc(b1-4)]Man(b1-4)GlcNAc(b1-4)[Fuc(a1-6)]GlcNAc. The method in brief: as §1
The target of assay [8] is Gal(b1-4)GlcNAc(b1-2)Man(a1-3)[GlcNAc(b1-2)Man(a1-6)]Man(b1-4)GlcNAc(b1-4)GlcNAc. The method in brief:
as §1

For assay [9], the target named is Gal(b1-4)GlcNAc(b1-2)Man(a1-3)[GlcNAc(b1-4)][Gal(b1-4)GlcNAc(b1-2)Man(a1-6)]Man(b1-4)GlcNAc(b1-4)GlcNAc. The method in brief: as §1
In assay [10] the target is Gal(b1-4)GlcNAc(b1-2)Man(a1-3)[Man(a1-6)]Man(b1-4)GlcNAc(b1-4)GlcNAc. The method in brief:
as §1

In assay [11] the target is Gal(b1-4)GlcNAc(b1-2)Man(a1-6)Man(b1-4)GlcNAc(b1-4)GlcNAc. The method in brief:
as §1

In assay [12] the target is Gal(b1-4)GlcNAc(b1-2)Man(a1-6)[GlcNAc(b1-2)Man(a1-3)]Man(b1-4)GlcNAc(b1-4)GlcNAc. The method in brief:
as §1

Assay [13] deals with Gal(b1-4)GlcNAc(b1-2)Man(a1-6)[Man(a1-3)]Man(b1-4)GlcNAc(b1-4)GlcNAc. The method in brief: as §1
Assay [14] addresses Gal(b1-4)GlcNAc(b1-2)[Gal(b1-4)GlcNAc(b1-4)]Man(a1-3)[Gal(b1-4)GlcNAc(b1-2)Man(a1-6)]Man(b1-4)GlcNAc(b1-4)GlcNAc. The method in brief:
as §1

For assay [15], the target named is Gal(b1-4)GlcNAc(b1-2)[Gal(b1-4)GlcNAc(b1-4)]Man(a1-3)[Gal(b1-4)GlcNAc(b1-2)[Gal(b1-4)GlcNAc(b1-6)]Man(a1-6)]Man(b1-4)GlcNAc(b1-4)GlcNAc. The method in brief:
as §1

Assay [16] concerns the target Gal(b1-4)GlcNAc(b1-2)[Gal(b1-4)GlcNAc(b1-4)]Man(a1-3)[GlcNAc(b1-4)][Gal(b1-4)GlcNAc(b1-2)Man(a1-6)]Man(b1-4)GlcNAc(b1-4)GlcNAc. The method in brief: as §1
For assay [17], the target named is Gal(b1-4)GlcNAc(b1-2)[Gal(b1-4)GlcNAc(b1-4)]Man(a1-3)[GlcNAc(b1-4)][Gal(b1-4)GlcNAc(b1-2)[Gal(b1-4)GlcNAc(b1-6)]Man(a1-6)]Man(b1-4)GlcNAc(b1-4)GlcNAc. The method in brief:
as §1

For assay [18], the target named is Gal(b1-4)GlcNAc(b1-2)[Gal(b1-4)GlcNAc(b1-6)]Man(a1-6)[Gal(b1-4)GlcNAc(b1-2)Man(a1-3)]Man(b1-4)GlcNAc(b1-4)GlcNAc. The method in brief:
as §1

The list shows a part of the results.

B1: DC-ASGPR Long (Homo sapiens) (protein)
chain: MTRTYENFQYLENKVKVQGFKNGPLPLQSLLQRLRSGPCHLLLSLGLGLLLLVIICVVGFQNSKFQRDLVTLRTDFSNFTSNTVAEIQALTSQGSSLEETIASLKAEVEGFKQERQAGVSELQEHTTQKAHLGHCPHCPSVCVPVHSEMLLRVQQLVQDLKKLTCQVATLNNNASTEGTCCPVNWVEHQDSCYWFSHSGMSWAEAEKYCQLKNAHLVVINSREEQNFVQKYLGSAYTWMGLSDPEGAWKWVDGTDYATGFQNWKPGQPDDWQGHGLGGGEDCAHFHPDGGWNDDVCQRPYHWVCEAGLGQTSQESH
On to B1, for which the “glycan array binding signal (z-score)” value in assay [1] is -0.39; with Gal(b1-4)Glc, -0.188; with Gal(b1-4)Glc6S, -0.258; with Gal(b1-4)GlcNAc, -0.154; in assay [2] it was 0.015; with Gal(b1-4)GlcNAc(b1-2)Man, -0.23. In addition, the “glycan array binding signal (z-score)” value is -0.201 in [3]; -0.358 in assay [4]; -0.26 in [5]; -0.174 in [6]; -0.266 in [7]; 1.08 in [8]. For the same molecule, the “glycan array binding signal (z-score)” value was -0.407 in [9]; -0.176 in assay [10]; 0.872 in assay [11]; -0.006 in assay [12]; -0.015 in [13]; -0.035 in assay [14]. Moreover, the “glycan array binding signal (z-score)” value in [15] was -0.318; in [16], 0.118; in assay [17], -0.794; in [18] it was -0.2.

The values above are taken from the supplement of paper PMC8728848.
